# Reference: paper PMC5737669 (Nucleic Acids Research, 2017)
# T1: Clp1 (Saccharomyces cerevisiae, UniProt Q08685 1-445)
# T1 sequence (looked up): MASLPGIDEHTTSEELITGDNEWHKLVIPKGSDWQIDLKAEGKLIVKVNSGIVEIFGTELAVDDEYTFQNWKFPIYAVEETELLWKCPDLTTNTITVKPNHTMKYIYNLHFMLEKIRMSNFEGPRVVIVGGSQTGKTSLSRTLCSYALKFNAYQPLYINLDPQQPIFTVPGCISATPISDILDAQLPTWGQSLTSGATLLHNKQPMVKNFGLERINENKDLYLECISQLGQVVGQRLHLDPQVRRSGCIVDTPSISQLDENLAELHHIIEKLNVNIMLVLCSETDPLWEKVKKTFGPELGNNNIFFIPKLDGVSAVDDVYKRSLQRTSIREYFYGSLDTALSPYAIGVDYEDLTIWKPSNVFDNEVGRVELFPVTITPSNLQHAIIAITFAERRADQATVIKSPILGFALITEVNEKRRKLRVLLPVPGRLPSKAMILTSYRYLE
# B1: Pcf11 ([…]) (domain or fragment)
# chain: not shown
# Target: T1, Clp1
# Assay: recombinant sub-complex obtained as a heterodimer
binder,measurement,value
B1,binding result,binds
